Results from the supplement of paper PMC8728848.
The other results are listed elsewhere or left out.

Tests used:
Test in all cases: glycan array binding signal (z-score within array); higher = stronger binding
Details in all cases: glycan notation: IUPAC condensed, linker removed
[1] = biological target: Gal(b1-3)[Neu5Ac(a2-6)]GalNAc
How it was run: (§1)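 Columns mapping to the same glycan were averaged after glycan names were converted to IUPAC-condensed notation. The data come from 3228 arrays in the Consortium for Functional Glycomics database, limited to those with an available protein sequence. Binding is reported as a within-array Z-score averaged across arrays of one protein sequence and across linkers.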

[2] = biological target: Gal(b1-3)[Neu5Ac(a2-6)]GlcNAc
How it was run: as §1

[3] = biological target: Gal(b1-3)[Neu5Ac(a2-6)]GlcNAc(a1-4)Gal(b1-4)Glc
How it was run: as §1

[4] = biological target: Gal(b1-3)[Neu5Ac(b2-6)]GlcNAc
How it was run: as §1

[5] = biological target: Gal(b1-4)GalNAc(a1-3)[Fuc(a1-2)]Gal(b1-4)GlcNAc
How it was run: as §1

[6] = biological target: Gal(b1-4)GalNAc(b1-3)[Fuc(a1-2)]Gal(b1-4)GlcNAc
How it was run: as §1

Gal(b1-4)Glc = biological target: Gal(b1-4)Glc
How it was run: as §1

Gal(b1-4)Glc6S = biological target: Gal(b1-4)Glc6S
How it was run: as §1

Gal(b1-4)GlcNAc = biological target: Gal(b1-4)GlcNAc
How it was run: as §1

[7] = biological target: Gal(b1-4)GlcNAc(b1-2)Man(a1-3)[Gal(b1-4)GlcNAc(b1-2)Man(a1-6)]Man(b1-4)GlcNAc(b1-4)GlcNAc
How it was run: as §1

[8] = biological target: Gal(b1-4)GlcNAc(b1-3)Gal(b1-4)Glc
How it was run: as §1

[9] = biological target: Gal(b1-4)GlcNAc(b1-3)Gal(b1-4)GlcNAc
How it was run: as §1

[10] = biological target: Gal(b1-4)GlcNAc(b1-3)Gal(b1-4)GlcNAc(b1-3)Gal(b1-4)GlcNAc
How it was run: as §1

[11] = biological target: Gal(b1-4)GlcNAc(b1-3)Gal(b1-4)[Fuc(a1-3)]GlcNAc(b1-3)Gal(b1-4)[Fuc(a1-3)]GlcNAc
How it was run: as §1

[12] = biological target: Gal(b1-4)GlcNAc(b1-3)GalNAc
How it was run: as §1

[13] = biological target: Gal(b1-4)GlcNAc(b1-3)[Gal(b1-4)GlcNAc(b1-6)]GalNAc
How it was run: as §1

[14] = biological target: Gal(b1-4)GlcNAc(b1-6)GalNAc
How it was run: as §1

[15] = biological target: Gal(b1-4)GlcNAc(b1-6)[Gal(b1-3)]GalNAc
How it was run: as §1

[16] = biological target: Gal(b1-4)GlcNAc(b1-6)[Gal(b1-3)]GlcNAc
How it was run: as §1

Gal3S(b1-3)GalNAc = biological target: Gal3S(b1-3)GalNAc
How it was run: as §1

Gal3S(b1-3)GlcNAc = biological target: Gal3S(b1-3)GlcNAc
How it was run: as §1

[17] = biological target: Gal3S(b1-3)[Fuc(a1-4)]GlcNAc
How it was run: as §1

Gal3S(b1-4)Glc = biological target: Gal3S(b1-4)Glc
How it was run: as §1

Gal3S(b1-4)Glc6S = biological target: Gal3S(b1-4)Glc6S
How it was run: as §1

Gal3S(b1-4)GlcNAc = biological target: Gal3S(b1-4)GlcNAc
How it was run: as §1

Gal3S(b1-4)GlcNAc6S = biological target: Gal3S(b1-4)GlcNAc6S
How it was run: as §1

Gal3S6S(b1-4)GlcNAc = biological target: Gal3S6S(b1-4)GlcNAc
How it was run: as §1

Gal3S6S(b1-4)GlcNAc6S = biological target: Gal3S6S(b1-4)GlcNAc6S
How it was run: as §1

Gal4S(b1-4)GlcNAc = biological target: Gal4S(b1-4)GlcNAc
How it was run: as §1

Gal4S6S(b1-4)GlcNAc = biological target: Gal4S6S(b1-4)GlcNAc
How it was run: as §1

Gal6S(b1-4)Glc = biological target: Gal6S(b1-4)Glc
How it was run: as §1

Gal6S(b1-4)Glc6S = biological target: Gal6S(b1-4)Glc6S
How it was run: as §1

Gal6S(b1-4)GlcNAc = biological target: Gal6S(b1-4)GlcNAc
How it was run: as §1

GalNAc(a1-3)Gal = biological target: GalNAc(a1-3)Gal
How it was run: as §1

GalNAc(a1-3)GalNAc = biological target: GalNAc(a1-3)GalNAc
How it was run: as §1

[18] = biological target: GalNAc(b1-3)Gal(a1-4)Gal(b1-4)GlcNAc
How it was run: as §1

GalNAc(b1-4)GlcNAc = biological target: GalNAc(b1-4)GlcNAc
How it was run: as §1

Glc(a1-4)Glc = biological target: Glc(a1-4)Glc
How it was run: as §1

Glc(a1-6)Glc(a1-6)Glc = biological target: Glc(a1-6)Glc(a1-6)Glc
How it was run: as §1

Glc(b1-4)Glc = biological target: Glc(b1-4)Glc
How it was run: as §1

Glc(b1-6)Glc = biological target: Glc(b1-6)Glc
How it was run: as §1

GlcA(b1-3)Gal = biological target: GlcA(b1-3)Gal
How it was run: as §1

GlcA(b1-6)Gal = biological target: GlcA(b1-6)Gal
How it was run: as §1

[19] = biological target: GlcNAc(a1-3)Gal(b1-4)GlcNAc
How it was run: as §1

[20] = biological target: GlcNAc(a1-6)Gal(b1-4)GlcNAc
How it was run: as §1

B1: Siglec 6 (Homo sapiens), O43699 (protein)
chain: MLPLLLPLLWAGALAQERRFQLEGPESLTVQEGLCVLVPCRLPTTLPASYYGYGYWFLEGADVPVATNDPDEEVQEETRGRFHLLWDPRRKNCSLSIRDARRRDNAAYFFRLKSKWMKYGYTSSKLSVRVMALTHRPNISIPGTLESGHPSNLTCSVPWVCEQGTPPIFSWMSAAPTSLGPRTTQSSVLTITPRPQDHSTNLTCQVTFPGAGVTMERTIQLNVSYAPQKVAISIFQGNSAAFKILQNTSSLPVLEGQALRLLCDADGNPPAHLSWFQGFPALNATPISNTGVLELPQVGSAEEGDFTCRAQHPLGSLQISLSLFVHWKPEGRAGGVLGAVWGASITTLVFLCVCFIFRVKTRRKKAAQPVQNTDDVNPVMVSGSRGHQHQFQTGIVSDHPAEAGPISEDEQELHYAVLHFHKVQPQEPKVTDTEYSEIKIHK
glycan array binding signal (z-score) [1]: -0.179
glycan array binding signal (z-score) [2]: -0.381
glycan array binding signal (z-score) [3]: 0.28
glycan array binding signal (z-score) [4]: -0.37
glycan array binding signal (z-score) [5]: -0.435
glycan array binding signal (z-score) [6]: 0.697
glycan array binding signal (z-score) (Gal(b1-4)Glc): -0.373
glycan array binding signal (z-score) (Gal(b1-4)Glc6S): 0.057
glycan array binding signal (z-score) (Gal(b1-4)GlcNAc): -0.454
glycan array binding signal (z-score) [7]: -0.29
glycan array binding signal (z-score) [8]: -0.356
glycan array binding signal (z-score) [9]: -0.175
glycan array binding signal (z-score) [10]: -0.516
glycan array binding signal (z-score) [11]: -0.404
glycan array binding signal (z-score) [12]: -0.399
glycan array binding signal (z-score) [13]: 0.126
glycan array binding signal (z-score) [14]: -0.483
glycan array binding signal (z-score) [15]: -0.521
glycan array binding signal (z-score) [16]: 0.046
glycan array binding signal (z-score) (Gal3S(b1-3)GalNAc): -0.276
glycan array binding signal (z-score) (Gal3S(b1-3)GlcNAc): -0.07
glycan array binding signal (z-score) [17]: -0.217
glycan array binding signal (z-score) (Gal3S(b1-4)Glc): -0.263
glycan array binding signal (z-score) (Gal3S(b1-4)Glc6S): 1.73
glycan array binding signal (z-score) (Gal3S(b1-4)GlcNAc): -0.01
glycan array binding signal (z-score) (Gal3S(b1-4)GlcNAc6S): 3.66
glycan array binding signal (z-score) (Gal3S6S(b1-4)GlcNAc): 5.12
glycan array binding signal (z-score) (Gal3S6S(b1-4)GlcNAc6S): 6.44
glycan array binding signal (z-score) (Gal4S(b1-4)GlcNAc): -0.089
glycan array binding signal (z-score) (Gal4S6S(b1-4)GlcNAc): 3
glycan array binding signal (z-score) (Gal6S(b1-4)Glc): 0.086
glycan array binding signal (z-score) (Gal6S(b1-4)Glc6S): 2.08
glycan array binding signal (z-score) (Gal6S(b1-4)GlcNAc): -0.197
glycan array binding signal (z-score) (GalNAc(a1-3)Gal): -0.358
glycan array binding signal (z-score) (GalNAc(a1-3)GalNAc): -0.219
glycan array binding signal (z-score) [18]: -0.151
glycan array binding signal (z-score) (GalNAc(b1-4)GlcNAc): -0.266
glycan array binding signal (z-score) (Glc(a1-4)Glc): -0.186
glycan array binding signal (z-score) (Glc(a1-6)Glc(a1-6)Glc): 0.114
glycan array binding signal (z-score) (Glc(b1-4)Glc): -0.282
glycan array binding signal (z-score) (Glc(b1-6)Glc): -0.081
glycan array binding signal (z-score) (GlcA(b1-3)Gal): 0.376
glycan array binding signal (z-score) (GlcA(b1-6)Gal): 0.211
glycan array binding signal (z-score) [19]: -0.158
glycan array binding signal (z-score) [20]: -0.48
